Consider 60 compounds from the supplement of paper PMC9446081.

Screen size: about 39,000 compounds; about 220 (0.56%) showed activity. This is one part of the list.
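Also: static incubation at 37 °C against the wild-type strain, values averaged over two biological replicates.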

The test system of the experiment is Escherichia coli K-12 BW25113. Kind of experiment: relative growth (OD600 normalised to plate interquartile mean) (fraction); higher = less growth inhibition, active = 0.2 or less. The following applies: 50 µM; LB; incubation time: overnight (16-24 h).
As for `C[C@H]1CN([C@@H](C)CO)C(=O)c2cc(NC(=O)Nc3ccccc3)ccc2O[C@@H]1CN(C)C(=O)Nc1ccc(C(F)(F)F)cc1`, the relative growth was inactive: 1.

Turning to `CO[C@@H]1CN(C)C(=O)c2ccc(NC(=O)C3CCCCC3)cc2OC[C@@H](C)N(C(=O)Nc2ccc(C(F)(F)F)cc2)C[C@H]1C`, the relative growth was inactive: 1.

In the case of `C[C@H](CO)N1C[C@H](C)[C@@H](CN(C)Cc2ccncc2)Oc2c(NS(=O)(=O)c3cn(C)cn3)cccc2C1=O`, the relative growth was inactive: 0.992.

`NCC[C@H]1CC[C@@H](NC(=O)C2CCC2)[C@@H](CO)O1`: the relative growth is inactive: 1.02.

As to `CCc1ccc(-c2cc3c(=O)n(CC(=O)NCCN4CCOCC4)nc(C)n3n2)cc1`, the relative growth was inactive: 1.03.

As to `O=C(C[C@@H]1CC[C@H]2[C@@H](COC[C@@H](O)CN2C(=O)Nc2ccc(Cl)c(Cl)c2)O1)NCc1ccncc1`, the relative growth was inactive: 0.928.

Turning to `C[C@H]1CN([C@@H](C)CO)C(=O)c2cccc(NS(=O)(=O)c3cn(C)cn3)c2O[C@@H]1CN(C)Cc1ccc(C(=O)Nc2ccccc2N)cc1`, the relative growth is inactive: 1.03.

`CN1CCC[C@H](C(=O)O)C1`: the relative growth was inactive: 1.07.

Consider `CC(C)CC#Cc1ccc2c(c1)O[C@H](CN(C)C(=O)Cc1ccncc1)[C@@H](C)CN([C@@H](C)CO)S2(=O)=O`, for which the relative growth is inactive: 0.976.

For the compound `C[C@@H]1CN([C@@H](C)CO)C(=O)c2cccc(NC(=O)C3CCOCC3)c2O[C@H]1CN(C)Cc1ccc2c(c1)OCO2`, the relative growth was inactive: 1.

With `C[C@@H]1CN([C@H](C)CO)C(=O)c2cccc(NC(=O)C3CCOCC3)c2O[C@H]1CN(C)Cc1ccc(Oc2ccccc2)cc1`, the relative growth was inactive: 0.996.

For `C[C@@H]1CN([C@@H](C)CO)C(=O)c2cc(NC(=O)Nc3cccc4ccccc34)ccc2O[C@H]1CN(C)Cc1ccccc1`, the relative growth was inactive: 1.

Turning to `NCCCn1c2c(c3ccccc31)CCCC2`, the relative growth is inactive: 0.899.

`O=C(Nc1cc(C(=O)Nc2ccc(S(=O)(=O)O)c(S(=O)(=O)O)c2)cc(C(=O)Nc2ccc(S(=O)(=O)O)c(S(=O)(=O)O)c2)c1)Nc1cc(C(=O)Nc2ccc(S(=O)(=O)O)c(S(=O)(=O)O)c2)cc(C(=O)Nc2ccc(S(=O)(=O)O)c(S(=O)(=O)O)c2)c1`: the relative growth is inactive: 1.

Consider `CCN(CC)c1ncc(C#N)c(N)n1`, for which the relative growth is inactive: 0.987.

With `Cn1cc[nH]c1=S`, the relative growth is inactive: 0.963.

As for `C[C@@H]1CN([C@H](C)CO)C(=O)Cc2cc(NS(=O)(=O)c3ccc(F)cc3)ccc2O[C@@H]1CN(C)Cc1ccncc1`, the relative growth was inactive: 0.997.

Turning to `C[N+](C)(C)CCCC[C@@H]1NC(=O)[C@H]2C[C@@H](C(=O)NCc3ccc(F)cc3)[C@@H](c3ccc(O)cc3)N2C1=O`, the relative growth was inactive: 0.881.

Turning to `Cc1ccc(S(=O)(=O)N(C)C[C@H]2OCCCC[C@@H](C)Oc3ccc(NC(=O)Nc4ccc(F)cc4)cc3C(=O)N([C@H](C)CO)C[C@@H]2C)cc1`, the relative growth was inactive: 1.02.

`C[C@@H]1CN([C@H](C)CO)C(=O)c2cc(NC(=O)CCCN(C)C)ccc2O[C@H]1CN(C)Cc1ccc2c(c1)OCO2`: the relative growth was inactive: 0.981.

Take `COc1ccc(NC(=O)Nc2ccc3c(c2)C(=O)N([C@@H](C)CO)C[C@H](C)[C@@H](CN(C)Cc2ccc(C(F)(F)F)cc2)OCCCC[C@H](C)O3)cc1`: the relative growth is inactive: 0.939.

With `Cc1noc(C)c1S(=O)(=O)Nc1ccc2c(c1)C(=O)N([C@H](C)CO)C[C@H](C)[C@@H](CN(C)S(C)(=O)=O)OCCCC[C@@H](C)O2`, the relative growth was inactive: 0.974.

Turning to `NC(=O)N1C(=O)[C@H]2[C@H](C1=O)[C@H]1C=C(c3ccc(CO)cc3)[C@@H]2[C@@H](C2CC2)N1Cc1cc2c(cc1Br)OCO2`, the relative growth was inactive: 1.04.

Turning to `C[C@@H]1CCCCO[C@H](CN(C)S(=O)(=O)c2ccc(Cl)cc2)[C@@H](C)CN([C@@H](C)CO)C(=O)c2cc(NC(=O)Cc3ccccc3)ccc2O1`, the relative growth is inactive: 1.02.

For `CCS(=O)(=O)NCC[C@H]1CC[C@H](NC(=O)Cc2ccccn2)[C@H](CO)O1`, the relative growth is inactive: 1.

`O=C(C[C@@H]1C/C=C/C[C@H](Cc2ccccc2)C(=O)N[C@H](c2ccccc2)COC1=O)NCc1ccc(Cl)cc1`: the relative growth was inactive: 1.03.

For the compound `C[C@@H]1CCCCO[C@H](CN(C)C(=O)Nc2ccc3c(c2)OCO3)[C@@H](C)CN([C@@H](C)CO)C(=O)c2cc(NC(=O)Cc3ccccc3)ccc2O1`, the relative growth is inactive: 1.03.

Regarding `COc1ccc(S(=O)(=O)Nc2ccc3c(c2)CC(=O)N([C@H](C)CO)C[C@H](C)[C@@H](CN(C)S(=O)(=O)c2ccc(OC)cc2)O3)cc1`, the relative growth is inactive: 0.997.

Take `C[C@@H]1CCCCO[C@H](CN(C)Cc2ccc(C(F)(F)F)cc2)[C@@H](C)CN([C@@H](C)CO)C(=O)c2cc(NC(=O)CCC(F)(F)F)ccc2O1`: the relative growth is inactive: 0.955.

As for `Cc1ccc2c(c1)[C@](C)(O)CCS2`, the relative growth is inactive: 1.01.

In the case of `COc1ccccc1CNC(=O)C[C@@H]1C[C@H]2c3cc(NC(=O)NC4CCCC4)ccc3O[C@H]2[C@H](CO)O1`, the relative growth is inactive: 0.987.

As to `COc1ccccc1-c1ccc2c(c1)O[C@H](CN(C)CC1CCOCC1)[C@@H](C)CN([C@H](C)CO)S2(=O)=O`, the relative growth is inactive: 1.04.

As to `C[C@H]1CN([C@@H](C)CO)C(=O)Cc2cc(NC(=O)NC3CCCCC3)ccc2O[C@@H]1CN(C)S(=O)(=O)c1cn(C)cn1`, the relative growth is inactive: 1.

As for `Cc1ccc(S(=O)(=O)N(C)C[C@@H]2OCCCC[C@@H](C)Oc3ccc(NC(=O)Cc4ccccc4)cc3C(=O)N([C@H](C)CO)C[C@@H]2C)cc1`, the relative growth was inactive: 1.

Regarding `CN(C)CCCCCCNC(=O)[C@@H]1C[C@@H]2C(=O)N[C@@H](CCCC[N+](C)(C)C)C(=O)N2[C@@H]1c1ccc(O)cc1`, the relative growth is inactive: 1.01.

Turning to `C[C@H](CO)N1C[C@H](C)[C@@H](CN(C)CC2CCOCC2)Oc2cc(C#Cc3cccnc3)ccc2S1(=O)=O`, the relative growth was inactive: 1.

For the compound `C[C@H](CO)N1C[C@H](C)[C@@H](CN(C)C(=O)c2ccccc2F)Oc2cc(C#CCN(C)C)ccc2S1(=O)=O`, the relative growth was inactive: 1.02.

With `C[C@@H]1CN([C@@H](C)CO)C(=O)c2cccc(NC(=O)Nc3ccc(C(F)(F)F)cc3)c2O[C@H]1CN(C)S(=O)(=O)c1ccc(F)cc1`, the relative growth is inactive: 0.795.

For `C[C@@H]1CN([C@@H](C)CO)S(=O)(=O)c2ccc(C3=CCCC3)cc2O[C@H]1CN(C)C(=O)C1CCOCC1`, the relative growth is inactive: 1.02.

Take `c1ccc(-c2cccs2)cc1`: the relative growth was inactive: 0.964.

For the compound `O=C(C[C@@H]1CC[C@@H]2[C@H](COC[C@@H](O)CN2C(=O)Nc2ccc(F)cc2)O1)NCCCN1CCOCC1`, the relative growth is inactive: 0.981.

`O=C(C[C@H]1C[C@@H]2c3cc(NS(=O)(=O)c4ccc(F)cc4)ccc3O[C@@H]2[C@@H](CO)O1)NCCN1CCCCC1`: the relative growth is inactive: 1.02.

With `C[C@H](CO)N1C[C@H](C)[C@@H](CN(C)S(=O)(=O)c2cn(C)cn2)Oc2ccc(NC(=O)C3CC3)cc2C1=O`, the relative growth is inactive: 1.02.

On to `Cc1ccc(S(=O)(=O)N(C)C[C@@H]2OCCCC[C@@H](C)Oc3ccc(NC(=O)Nc4ccc5c(c4)OCO5)cc3C(=O)N([C@H](C)CO)C[C@@H]2C)cc1`, for which the relative growth was inactive: 1.

As for `CCS(=O)(=O)N1C[C@]2(C1)CN([C@@H](CO)c1[nH]c3cc(ccc3c12)OC)S(=O)(=O)c1cccc(c1)OC`, the relative growth was inactive: 1.02.

Turning to `C[C@@H]1CN([C@@H](C)CO)C(=O)c2cc(C#CCN(C)C)cnc2O[C@H]1CN(C)Cc1ccc(C(=O)O)cc1`, the relative growth was inactive: 0.997.

As to `O=C(NO)c1ccc(C(=O)N/N=C/[C@H](O)[C@@H](O)[C@@H](O)[C@H](O)CO)cc1`, the relative growth is inactive: 1.01.

As to `Cc1ccc(S(=O)(=O)N(C)C[C@@H]2OCCCC[C@@H](C)Oc3ccc(NC(=O)Nc4ccc(C(F)(F)F)cc4)cc3C(=O)N([C@H](C)CO)C[C@@H]2C)cc1`, the relative growth was inactive: 1.02.

For `COc1ccc(S(=O)(=O)N(C)C[C@H]2Oc3ncc(C#CC4(O)CCCC4)cc3C(=O)N([C@H](C)CO)C[C@@H]2C)cc1`, the relative growth is inactive: 1.02.

As to `COCC(=O)N1C[C@@H](C)[C@@H](OC)CN(C)C(=O)c2cc(NC(=O)Nc3ccccc3)ccc2OC[C@@H]1C`, the relative growth was inactive: 1.04.

For `C[C@H]1CCCCO[C@H](CN(C)C(=O)CCC(F)(F)F)[C@@H](C)CN([C@@H](C)CO)C(=O)c2cc(NS(=O)(=O)c3ccccc3)ccc2O1`, the relative growth was inactive: 0.973.

Take `C[C@H]1CN([C@@H](C)CO)C(=O)c2cc(NS(C)(=O)=O)ccc2O[C@@H]1CN(C)S(=O)(=O)c1ccccc1`: the relative growth was inactive: 1.

In the case of `CC(C)CN[C@H]1CCS(=O)(=O)C1`, the relative growth was inactive: 1.07.

For `CCOC(=O)c1cccc([C@@H]2CC(=O)N(C(=O)OCc3ccccc3)[C@@H]2C(=O)Nc2cccc3cccnc23)c1`, the relative growth is inactive: 1.02.

Take `Cc1noc(C)c1NC(=O)Nc1ccc2c(c1)CC(=O)N([C@H](C)CO)C[C@H](C)[C@@H](CN(C)S(=O)(=O)c1ccccc1)O2`: the relative growth was inactive: 1.

As to `C[C@@H]1CN([C@H](C)CO)C(=O)Cc2cc(NC(=O)C3CC3)ccc2O[C@H]1CN(C)Cc1ccc2c(c1)OCO2`, the relative growth is inactive: 1.01.

Consider `COc1ccc(CN(C)C[C@@H]2OCCCC[C@H](C)Oc3ccc(NS(=O)(=O)c4ccc(OC)cc4)cc3C(=O)N([C@H](C)CO)C[C@H]2C)cc1`, for which the relative growth was inactive: 0.994.

`C[C@H](CO)N1C[C@H](C)[C@H](CN(C)C(=O)Nc2ccc(F)cc2)Oc2cc(C#CC3(O)CCCC3)ccc2S1(=O)=O`: the relative growth was inactive: 1.01.

Take `COC(=O)C(N)CS.Cl` (stereo not given): the relative growth is inactive: 0.994.

With `CC(C)NC(=O)N(C)C[C@@H]1Oc2ccc(NS(=O)(=O)c3ccc(F)cc3)cc2C(=O)N([C@@H](C)CO)C[C@@H]1C`, the relative growth is inactive: 0.975.
